Laboratory results as given in ChEMBL document CHEMBL4888484, “Replenishing the malaria drug discovery pipeline: Screening and hit evaluation of the MMV Hit Generation Library 1 (HGL1) against asexual blood stage Plasmodium falciparum ,using a nano luciferase reporter read-out” (2022).
Screen size: about 150,000 compounds; about 540 (0.36%) showed an effect of 50% or more. Some of the results follow.

test system: Plasmodium falciparum; experiment: Primary screen in NF54 nanoGlo assay, in single point, at 2uM, 72h; a lower Z score goes with more inhibition; assay type: functional, Erythrocyte; details: timepoint 72 hour

SMILES	% Inhibition [%]	Z score
Cc1ncsc1C(=O)OCC(=O)Nc1ccc(S(N)(=O)=O)cc1	-4	0.34
CN1CCN([C@H]2CCN(Cc3ccc(Cl)o3)C2)CC1	-1	0.12
Cc1nc2c(F)cccc2cc1C(=O)NC1CCN(C[C@H]2CCOC2)CC1	-13	1.68
Cc1nnc(N(C)Cc2ccccc2CN(C)C)s1	-7	0.9
O=C(C1CCCC1)N(CCN1CCOCC1)CC(=O)N1N=C(c2ccc(F)cc2)C[C@H]1c1ccc(F)cc1	-22	2.09
COC[C@H](C)N1CCN(C(=O)c2cc3ccccc3c(=O)[nH]2)CC1	2	-0.24
O=C(CCn1ccccc1=O)NCC1(c2cccc(Cl)c2)CC1	4	-0.47
O=C(NCCN1CCCOC1=O)c1cccc(-c2cc(F)ccc2O)c1	-5	0.66
COC(=O)[C@](C)(NC(C)=O)c1cc(F)ccc1F	-3	0.53
O=C(NCCN1CCCOCC1)c1ncccc1NCC1CCC1	26	-2.96
CC[C@H](O)Cn1nc(C2(c3ccccc3)CC2)nc1CCn1ccc(C)n1	-2	0.34
O=C1c2cccc3[nH]cc(c23)C=NN1CN1CCN(c2ccccc2)CC1	1	-0.13
COCc1nc(NC2CCC(NC(=O)c3ccccc3)CC2)c2c(C)nn(-c3ccccc3)c2n1 (stereo not drawn)	3	-0.41
Cn1ncc2c(N3CCc4[nH]nc(C5CC5)c4C3)nc(-c3cccnc3)nc21	-15	1.83
Cc1nc[nH]c1-c1nccn1-c1ccc2cn[nH]c2c1	-6	1.35
COc1cccc(-c2nc3sc(C(=O)N4CCOCC4)c(C)n3c2NC(C)(C)C)c1	-3	0.57
CC1(C)CC(NC(=O)c2sccc2C2CC2)CC(C)(C)N1	8	-0.78
COc1cccc(CN(C)C(=O)c2ccon2)n1	-12	1.72
Cc1ccc(C(=O)N[C@H](CO)CN2CCCCC2)o1	-1	0.12
Cc1noc(C)c1CN1CC[C@H](NC(=O)c2cscn2)[C@@H](O)C1	4	-0.76
CN(Cc1cccnc1)Cc1cccc(-c2cccnc2)c1	-7	0.92

SMILES	% Inhibition [%]	Z score
C=C1CC[C@@H]2C[C@H]1C(c1ccc(N(C)C)cc1)OC2(C)C.CC1=CC[C@@H]2C[C@H]1C(c1ccc(N(C)C)cc1)OC2(C)C (stereo partly drawn)	-10	0.93
O=C(CCCc1ccccc1)N1CC[C@H](N2CCc3ccccc3C2)C1	-13	2.49
Cc1nc(CC(=O)N2C[C@@H]3CC[C@H]2CN(c2cnccn2)C3)cs1	-9	0.93
COCCN(C)Cc1ccnc(NC(=O)Cc2ccc(C)nc2)c1	-4	0.45
CC1CC(O)CN1C(=O)c1nn(-c2cccc(Br)c2)c2c1CCC2 (stereo not drawn)	-20	1.73
CCc1nc(Cn2cnc3snc(C)c3c2=O)cs1	-18	3.73
CCc1csc(N2C[C@H]3CCC[C@@]3(CO)C2)n1	6	-0.66
CC(C)c1noc(-c2cccn3c(CNC(=O)CCC4CCCC4)nnc23)n1	-19	3.75
Cc1ccc(C(=O)N[C@](C)(c2noc(C)n2)C2CC2)c(Cl)c1	-9	1.62
CCCNC(=O)c1cnc(N2CCCC2)nc1	-9	1.77
Cc1n[nH]c(C)c2cc(C(C)(C)C)cc1-2	26	-3.86
O=C(c1ccc2nccnc2c1)N1C[C@@H]2CC[C@H]1CN(Cc1ccccn1)C2	1	-0.13
O=c1cc(-c2ccc(Cl)cc2)nc(N2CCN(C(c3ccccc3)c3ccccc3)CC2)[nH]1	-14	2.03
Cc1ccc(S(=O)(=O)Nc2nc(C)c(C(=O)NCc3c(F)cccc3F)s2)cc1	-1	0.09
CC[C@@H](C(=O)N1CCN(Cc2ccc3c(c2)OCO3)CC1)n1c(O)nc2ccccc2c1=O	-9	1.26
CC1(C)C(O)CC1NC(=O)c1cc(Br)ccc1F (stereo not drawn)	5	-0.93
O=C(c1ccncc1Br)N1CCCC[C@H]1c1ncon1	-12	1.79
Cc1ccc([C@H](CNC(=O)c2ccccc2F)N2CCC(C)CC2)o1	-4	0.67
Cn1cccc1-c1cc2n(n1)CCC(=O)N2CCCC(=O)NCc1ccc2c(c1)OCO2	-13	2.48
CC[C@H]1C(=O)NCCN1Cc1c(Br)cncc1OC	-4	0.54
COc1ccc(O)cc1CN1CC[C@H](CNC(=O)N2CCCC2)[C@@H](O)C1	-11	1.26

SMILES	% Inhibition [%]	Z score
Cc1nnc(NC(=O)NC(C)C2CCCO2)s1 (stereo not drawn)	-3	0.46
c1c[nH]c(N2CCN(CC3CC4(CCC4)C3)CC2)n1	-6	0.84
CC(C)(C)CN1CCC[C@@]2(CCN(Cc3nc(-c4ccccc4)no3)C2)C1=O	-13	2.1
O=C(OC1CCN(CC(F)F)CC1)c1cnn2c1CCCC2	4	-0.6
CC(=O)c1cnc2c(-c3ccccc3)c(-c3cccc(Br)c3)nn2c1C	-45	5.22
O=C(c1ccnc(C2CC2)n1)N1CC(c2nc3ccccc3s2)C1	-15	1.36
c1nc(N[C@H]2C[C@@H](c3cc(N4CCOCC4)ncn3)C2)c2nc[nH]c2n1	6	-0.93
Cc1cc(C)n(Cc2c(C(=O)N[C@@H](C)CCc3ccccc3)noc2C)n1	-7	0.69
CN1c2cc(F)c(NC(=O)C(C)(C)Oc3ccc(Cl)cc3)cc2N(C)S1(=O)=O	-13	1.66
CCn1nccc1C(=O)N1C2CCC1Cn1c(nnc1-c1ccccc1)C2 (stereo not drawn)	-12	1.62
O=C([C@@H]1COc2ccccc2O1)N1CC(n2ccnn2)C1	-4	0.49
CN(C)CCCn1ccnc1C1CCN(C(=O)c2ccc3c(c2)CCO3)CC1	-1	0.11
Cc1cc(Oc2ccc(NC(=O)NCc3sccc3C)cc2)n[nH]1	-6	0.8
CNC(=O)c1ccc(N(C)S(=O)(=O)N(C)C)cc1	-12	1.09
COc1ccccc1Cn1nnnc1N1CCC(CO)(OC)CC1	1	-0.11
O=C1CC[C@@H]2CN(c3ncnc4[nH]cnc34)CC[C@@H]2N1CCCn1ccnc1	-4	0.75
Cc1nn(Cc2nc(-c3c(F)cccc3F)cs2)c(N)c1C#N	6	-1.11
Cc1cccc(CNC(=O)[C@H]2CCC(=O)N(C3CCCCCC3)C2)n1	-5	0.84
CCc1nc(CN2CC(N3CCCC[C@@H]3C)C2)n[nH]1	0	0.03
CC(C)(C)OC(=O)N1CCC2CN(C(=O)CC#N)CC2C1 (stereo not drawn)	-5	0.79
O=C(NCc1ccco1)c1c[nH]c(=O)n(Cc2ccccc2F)c1=O	0	0.05

SMILES	% Inhibition [%]	Z score
CCc1ccccc1S(=O)(=O)N1CCN(c2nc3ccncc3n(C(C)C)c2=O)CC1	-9	0.92
O=C(Nc1cccs1)N1CC[C@H](Oc2cccc3cccnc23)C1	-27	5.07
Cc1nn([C@H]2CCS(=O)(=O)C2)c(C)c1N1CCN(C(=O)CCn2cnc3ccccc3c2=O)CC1	-17	3.01
CC(C)(C)CCS(=O)(=O)N1CC(n2ccnn2)C1	-9	0.95
Cc1ccc(Cl)cc1NC(=O)c1sc(-n2nc(C)c(Cc3ccccc3)c2O)nc1C	-4	0.46
CCC(=O)N(CCCOC)Cc1c(-c2ccccc2)noc1N1CCOCC1	0	0.02
Cc1nc(C(C)C)ccc1CN(CCO)S(C)(=O)=O	-29	3.44
COc1ccc([C@@H](NCc2nnc(C)o2)C(F)(F)F)cc1	-1	0.11
c1ccc(-c2ccnc(NCc3nnc4n3CCC4)n2)nc1	-7	1.11
COc1ccc(NC(=O)N[C@@H](CC(C)C)c2nnc3ccccn23)cc1	-15	1.85
Cn1nc(C(=O)Nc2ccc(F)cc2)c(=O)c2ccccc21	-14	1.89
CCCN(C)Cc1nc2nc(C)cc(N(CC)CC)n2n1	-13	1.73
CC1(C)C(=O)Nc2cc(C(=O)NC[C@@]3(CCO)CCOC3)ccc21	0	0.07
Cn1nccc1CCNC(=O)c1csc(C(F)(F)F)n1	-7	0.71
CCNC(=O)NCCn1cc(-c2ccoc2)cn1	-5	0.92
CC(C)(Cc1ccccc1)C(=O)Nc1ncccn1	3	-0.49
Cc1nc(N2CCOCC2)ncc1C(=O)NCc1cccc(Cl)c1	-16	2.53
C=CCNC(=O)N[C@H]1CCCC(F)(F)C1	-3	0.5
COc1nc(N2CCN(CC3CC3)[C@@H](CCO)C2)ncc1F	-14	2
COc1cc(NC(C)=O)ccc1NCc1cnc(-c2ccco2)s1	-11	1.43
N#Cc1ccc(S(=O)(=O)N2C[C@H](C(=O)NC3CCCCC3)C3(CCOCC3)C2)cc1	3	-0.59
